Screen size: about 410,000 compounds; about 1,200 (0.29%) were called active. The shares of active, inactive and inconclusive entries below differ from those in the screen. Calls follow the shape of the dose curve; as a rule, active = well fitted activation curve with a large enough effect; inconclusive = small, poorly fitted or top-dose-only effect; inactive = flat fitted curve, though single readings scatter. Potencies of inconclusive entries are doubtful fits and often do not repeat.
Assay: qHTS of Nrf2 Activators; also: nearly all actives have a fitted effect of over 65% in size; as to activation: % of control where 0% means no effect
Conditions: AREc32 ARE-luciferase reporter (MCF7-derived line), luminescence, 24 h; activation: at 46.1 µM (top of the series)
Outline: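 Nrf2 activation is followed as ARE-luciferase induction in the AREc32 line after one day of compound treatment; luminescence is read with Steady-Glo.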
Potency is read from the fitted curve at half-maximal effect; tags tell the direction and shape of the fitted curve.

Q: With `CCCCN(CC)CCCNC(=O)C1CCN(c2ncnc3c2sc2cccc(F)c23)CC1` as the compound, how does the Potency read?
A: The Potency was inconclusive: 28.2 µM [activator, single point].

Q: Which Potency does the source give for `O=C(CSc1nnc2sc3ccccc3n12)c1ccco1` here?
A: Its Potency is inconclusive: 12.6 µM [activator, single point].

Q: With `c1coc(-c2nc3ccccc3s2)c1` as the compound, how does the Potency read?
A: Its Potency is active: 11.2 µM.

Q: With `C[C@H]1CN([C@@H](C)CO)C(=O)c2cccc(NC(=O)Nc3ccc(C(F)(F)F)cc3)c2O[C@@H]1CN(C)C(=O)Nc1ccc(F)cc1` as the compound, how does the “activation” value read?
A: The value was inactive: -5.57%.

Q: Which “activation” value does the source give for `CCc1ccc(NC(=O)C(C)OC(=O)C2CCC(=O)N2)cc1` (configuration not stated) here?
A: Its value is inactive: 2.6%.

Q: For `Cc1ccc(C(=O)O)cc1N1C(=O)c2cccc3c([N+](=O)[O-])ccc(c23)C1=O`, which Potency is on record?
A: The Potency was inconclusive: 17.8 µM [activator, single point].

Q: Which Potency does the source give for `CC(=O)c1ccc(/C=C/c2nc3ccccc3n2C)o1` here?
A: Its Potency is inconclusive: 17.8 µM [activator, partial curve, poor fit].

Q: For `COc1ccc(-n2c(SCC(=O)Nc3ccc(C(N)=O)cc3)nc3c([nH]c4ccccc43)c2=O)cc1OC`, which Potency is on record?
A: Its Potency is inconclusive: 20 µM [activator, single point].

Q: Which “activation” value does the source give for `COc1ccc(C)cc1NC(=O)N1CCCn2nc(C)cc21` here?
A: Its value is inactive: 3.62%.

Q: Which Potency does the source give for `O=C(COc1ccccc1[N+](=O)[O-])N(Cc1ccco1)c1ccccn1` here?
A: The Potency was inconclusive: 22.4 µM [activator, single point].

Q: With `COc1ccc(/C=C2/C(=O)ON=C2c2ccccc2)cc1OC` as the compound, how does the “activation” value read?
A: Its value is inactive: -0.0932%.

Q: With `C/C(=C/c1oc2ccc(O)cc2c1[N+](=O)[O-])N(C)C` as the compound, how does the Potency read?
A: Its Potency is inconclusive: 35.5 µM [activator, partial curve, poor fit].

Q: With `Cc1ccc(/C=C2/SC(=S)N(CCC(=O)NCCCN3CCOCC3)C2=O)cc1` as the compound, how does the Potency read?
A: The Potency was inconclusive: 28.2 µM [activator, single point].

Q: With `COc1ccc(OC)c(-n2c(C)ccc2-c2ccc(S(C)(=O)=O)cc2)c1` as the compound, how does the Potency read?
A: Its Potency is inconclusive: 31.6 µM [activator, single point].

Q: For `Cn1c(NCc2ccccc2F)nc2cc(-c3cccc(C(F)(F)F)c3)sc2c1=O`, which Potency is on record?
A: Its Potency is inconclusive: 2.24 µM [activator, partial curve, poor fit].

Q: Which Potency does the source give for `CCOc1cccc2c1OC(c1cc(OC)c(OC)c(OC)c1)N1N=C(c3ccc(C)o3)CC21` (configuration not stated) here?
A: Its Potency is active: 12.6 µM.

Q: Which Potency does the source give for `COc1ccc(OC)c(NC(=O)/C=C/c2ccc(C)o2)c1` here?
A: Its Potency is inconclusive: 2.82 µM [activator, full curve, poor fit].

Q: For `COc1ccccc1NC(=O)CSc1nnc(-c2ccoc2C)o1`, which “activation” value is on record?
A: The value was inactive: 11.7%.

Q: For `COc1ccc(-c2[nH]nc3c2C(c2ccncc2)C(C#N)=C(N)O3)cc1` (configuration not stated), which Potency is on record?
A: The Potency was inconclusive: 20 µM [activator, single point].

Q: For `COc1cc(/C=C(\C#N)c2nc3ccccc3o2)ccc1O`, which Potency is on record?
A: Its Potency is inconclusive: 11.2 µM [activator, partial curve, poor fit].

Q: Which Potency does the source give for `C#CCn1c(=NC(=O)c2cc(Cl)sc2Cl)sc2cc(S(N)(=O)=O)ccc21` here?
A: Its Potency is inconclusive: 15.8 µM [activator, partial curve, poor fit].

Q: With `O=C1CC(/C=C/c2ccccc2)=Nc2ccccc2N1` as the compound, how does the Potency read?
A: The Potency was inconclusive: 20 µM [activator, single point].

Q: Which Potency does the source give for `Cc1nn2c(=O)cc(COC(=O)c3c(F)cccc3Cl)nc2s1` here?
A: Its Potency is inconclusive: 6.31 µM [activator, partial curve].

Q: For `CCn1c(/C=C2\C(=O)N(C)c3ccccc32)nc2ccccc2c1=O`, which Potency is on record?
A: The Potency was inconclusive: 12.6 µM [activator, partial curve, poor fit].

Q: Which Potency does the source give for `CN(C)CCNC(=O)c1coc(=O)c(Br)c1` here?
A: The Potency was inconclusive: 31.6 µM [activator, single point].

Q: For `COc1ccc(C2C=C(c3ccccc3)Nc3nc(NC(=O)/C=C/c4ccccc4)nn32)cc1` (configuration not stated), which Potency is on record?
A: The Potency was inconclusive: 22.4 µM [activator, single point].

Q: For `COc1cccc(-c2csc(NC3OC(=O)c4c3ccc(OC)c4OC)n2)c1` (configuration not stated), which Potency is on record?
A: Its Potency is inconclusive: 17.8 µM [activator, single point].

Q: For `O=C(Nc1ccccc1)OCc1cc(-c2ccccc2Cl)on1`, which “activation” value is on record?
A: Its value is inactive: -0.624%.

Q: For `O=C(CCl)N1N=C(c2ccco2)CC1c1ccco1` (configuration not stated), which Potency is on record?
A: Its Potency is active: 15.8 µM.

Q: For `CC(=O)N1/C(=C/c2ccc(N(C)C)cc2)C(=O)c2ccccc21`, which Potency is on record?
A: The Potency was inconclusive: 4.47 µM [activator, single point].

Q: For `CC(O)C(NS(=O)(=O)c1ccc(Cl)cc1)C(=O)OCC(=O)c1c[nH]c2ccccc12` (configuration not stated), which “activation” value is on record?
A: Its value is inactive: 9.58%.

Q: For `CNc1ccc(Br)cc(C(=O)/C=C/c2ccc(Cl)cc2Cl)c1=O`, which Potency is on record?
A: Its Potency is active: 8.91 µM.

Q: For `Cc1ccsc1/C=N/n1c(-c2ccco2)n[nH]c1=S`, which Potency is on record?
A: Its Potency is inconclusive: 15.8 µM [activator, partial curve, poor fit].

Q: Which “activation” value does the source give for `CCCC(=O)Nc1ccc(-c2nc3cc(C)ccc3o2)cc1` here?
A: The value was inactive: 7.26%.

Q: With `O=C(/C=C\c1ccccc1[N+](=O)[O-])Nc1ccccc1` as the compound, how does the Potency read?
A: Its Potency is active: 11.2 µM.

Q: With `Cc1cccc(NC(=O)C2CC(=O)N/C(=N/N=C/c3ccco3)S2)c1` (configuration not stated) as the compound, how does the Potency read?
A: The Potency was inconclusive: 7.08 µM [activator, partial curve, poor fit].

Q: For `COc1cc(C2CC(=O)Nc3cc4c(cc32)OCCO4)cc(Br)c1OC` (configuration not stated), which “activation” value is on record?
A: The value was inactive: -0.145%.

Q: With `COc1ccc(C(=O)/C=C/c2ccc(OC)c(O)c2)c(F)c1` as the compound, how does the Potency read?
A: The Potency was inconclusive: 22.4 µM [activator, single point].

Q: With `O=c1c(=Nc2ccccc2O)c(=O)c2ccccc12` as the compound, how does the Potency read?
A: Its Potency is inconclusive: 12.6 µM [activator, partial curve, poor fit].

Q: For `COc1cc(/C=C/C(C)=NNc2ccccc2)ccc1O`, which Potency is on record?
A: Its Potency is inconclusive: 20 µM [activator, partial curve, poor fit].

Q: With `O=C1C2C3C=CC(C4CC34)C2C(=O)N1/N=C/c1ccc(-c2cccc([N+](=O)[O-])c2)o1` (configuration not stated) as the compound, how does the Potency read?
A: Its Potency is inconclusive: 11.2 µM [activator, partial curve, poor fit].

Q: For `Cc1ccc2c(c1)c1c3n2CCN(C(=O)CCl)C3CCC1` (configuration not stated), which Potency is on record?
A: Its Potency is inconclusive: 25.1 µM [activator, single point].

Q: For `Cc1cccc(NC(c2ccc(O)cc2)c2ccc3ccc(C)nc3c2O)n1` (configuration not stated), which Potency is on record?
A: Its Potency is inconclusive: 35.5 µM [activator, single point].

Q: With `Fc1cccc(Cc2c(-c3ccco3)nc3ccc(Cl)cn23)c1` as the compound, how does the Potency read?
A: The Potency was inconclusive: 5.62 µM [activator, full curve].

Q: With `Oc1ccc(Br)cc1-c1cc(-c2ccco2)[nH]n1` as the compound, how does the Potency read?
A: The Potency was active: 3.55 µM.

Q: With `O=C(CCS(=O)(=O)c1ccccc1)Nc1ncc([N+](=O)[O-])s1` as the compound, how does the Potency read?
A: Its Potency is inconclusive: 4.47 µM [activator, single point].

Q: Which Potency does the source give for `COc1ccc(NC(=O)c2c(NCc3sccc3C)sc3c2CCCCC3)c(OC)c1` here?
A: Its Potency is inconclusive: 17.8 µM [activator, single point].

Q: For `CCOC(=O)C(C(=O)OCC)C(Nc1ccc(Br)cc1)c1ccccc1` (configuration not stated), which Potency is on record?
A: Its Potency is inconclusive: 4.47 µM [activator, single point].

Q: Which “activation” value does the source give for `Nc1c(C(=O)NC2CC2)c2nc3ccccc3nc2n1-c1ccc2c(c1)OCO2` here?
A: Its value is inactive: 4.31%.

Q: For `O=C(NCc1cccnc1)/C(=C\c1ccc(-c2cccc(Cl)c2)o1)S(=O)(=O)c1ccccc1`, which Potency is on record?
A: The Potency was inconclusive: 5.62 µM [activator, single point].

Q: For `COCC(=O)OC/C(O)=C(\C#N)c1nc2ccccc2[nH]1`, which Potency is on record?
A: Its Potency is inconclusive: 31.6 µM [activator, single point].

Q: For `COc1ccc(C2=NN(CN3C(=O)C(=O)c4ccccc43)C(c3cccc([N+](=O)[O-])c3)C2)cc1` (configuration not stated), which Potency is on record?
A: Its Potency is inconclusive: 20 µM [activator, single point].

Q: Which Potency does the source give for `CC(C)C1OC2c3cccc4cccc(c34)C2N1c1ccccc1` (configuration not stated) here?
A: Its Potency is inconclusive: 35.5 µM [activator, single point].

Q: With `CCN(C(=O)c1ccc2c(c1)OCO2)C12CC3CC(CC(C3)C1)C2` as the compound, how does the “activation” value read?
A: The value was inactive: -0.239%.

Q: Which “activation” value does the source give for `CCC(C(=O)Nc1cc(F)ccc1F)n1nc(-c2cc(C)ccc2C)ccc1=O` (configuration not stated) here?
A: The value was inactive: 4.94%.

Q: With `Cn1c(/C=C/c2ccc([N+](=O)[O-])o2)nc2ccccc2c1=O` as the compound, how does the Potency read?
A: The Potency was inconclusive: 3.55 µM [activator, partial curve, poor fit].

Q: For `O=C(CSCc1ccc(Cl)cc1)Nc1ccccc1O`, which Potency is on record?
A: The Potency was inconclusive: 11.2 µM [activator, partial curve, poor fit].

Q: For `O=C(/C=C/c1ccccc1Cl)c1ccc[nH]1`, which Potency is on record?
A: Its Potency is inconclusive: 5.01 µM [activator, single point].

Q: Which Potency does the source give for `O=[N+]([O-])c1c(Nc2ccccc2O)ccc2nonc12` here?
A: The Potency was inconclusive: 17.8 µM [activator, single point].

Q: With `CN1CCN(Cn2cc(/C=C/C(=O)c3ccccc3)c3ccccc32)CC1` as the compound, how does the Potency read?
A: The Potency was inconclusive: 12.6 µM [activator, partial curve].

Q: Which Potency does the source give for `CCOC(=O)C(C(=O)OCC)C(Nc1ccccc1)c1ccccc1` (configuration not stated) here?
A: The Potency was inconclusive: 22.4 µM [activator, single point].

Q: With `O=C(CSc1nc(-c2cccs2)nc2cc(=O)[nH]n12)Nc1ccccc1F` as the compound, how does the Potency read?
A: Its Potency is inconclusive: 14.1 µM [activator, single point].

Q: Which Potency does the source give for `CN(C)c1ccc2nsnc2c1[N+](=O)[O-]` here?
A: The Potency was inconclusive: 17.8 µM [activator, single point].

Q: With `CSC1=NC(C)(C)C=C(/C=C/c2ccc(Cl)cc2Cl)N1` as the compound, how does the Potency read?
A: The Potency was active: 25.1 µM.

Q: Which Potency does the source give for `CCC(C)Cn1cnc2c(Sc3c([N+](=O)[O-])ncn3C)nc(N)nc21` (configuration not stated) here?
A: Its Potency is inconclusive: 22.4 µM [activator, single point].

Q: For `Cc1noc(C)c1C(=O)Nc1nc2ccccc2s1`, which Potency is on record?
A: The Potency was inconclusive: 12.6 µM [activator, partial curve, poor fit].

Q: Which Potency does the source give for `COC(=O)c1c(NC(=O)Nc2ccc(Cl)cc2)sc(C)c1C` here?
A: Its Potency is inconclusive: 12.6 µM [activator, partial curve, poor fit].

— PubChem BioAssay AID624171 (National Center for Advancing Translational Sciences (NCATS), 2012)
